According to PubChem BioAssay AID652106 (National Center for Advancing Translational Sciences (NCATS), 2013):
The campaign covered roughly 370,000 compounds. About 500 (0.14%) were called active. The inconclusive results got no clear call from the source; some entries with a clear call stand among them for comparison. Calls come from the whole dose curve; as a rule, active = well fitted activation curve with a large enough effect; inconclusive = small, poorly fitted or top-dose-only effect; inactive = no such curve, though single readings can be large or run the other way. Potencies of inconclusive entries are left out as doubtful fits.

assay: qHTS of alpha-syn Inhibitors; settings: Yeast expressing alpha-synuclein, BacTiter-Glo, 24 h; Potency: growth rescue unless noted; growth rescue (activation): at 46.1 µM (top of the series) unless noted; note: nearly all actives have a fitted effect of over 65% in size; for growth rescue (activation): % of control where 0% means no effect
In short: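 Screening used galactose-induced yeast with toxic alpha-synuclein levels, exposed to compound for 24 hr at 30 deg C. Cell growth, read with BacTiter-Glo luminescence, gave the measured signal.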
Potency is the fitted concentration of half-maximal effect; tags give direction and shape of the fitted curve.

Q: With `COC(=O)C1=CN(C(C)C)C=C(C(=O)OC)C1c1cc(Br)c(OC)c(OC)c1` as the compound, how does the “growth rescue (activation)” value read?
A: Its value is inactive: 7.52%.

Q: Which “growth rescue (activation)” value does the source give for `O=C(Cc1ccccc1)Nc1nccs1` here?
A: The value was inactive: 0.623%.

Q: For `COc1ccccc1NC(=O)N1CCCC1C(=O)Nc1ccc2c(c1)OCCO2` (centres undefined), which “growth rescue (activation)” value is on record?
A: The value was inactive: 9.59%.

Q: For `O=C(Cn1cc(C(F)(F)F)cc(Cl)c1=O)NCc1ccc(Cl)cc1Cl`, which “growth rescue (activation)” value is on record?
A: The value was inactive: -3.41%.

Q: For `O=C(NNc1ccccc1)c1ccc(Cl)c(Cl)c1`, which Potency is on record?
A: The Potency was inconclusive [activator, single point].

Q: With `CCCCNC(=O)C1(C)CCCCN1C(=O)c1ccc2c(c1)C(C)(C)CCC2(C)C` (centres undefined) as the compound, how does the “growth rescue (activation)” value read?
A: Its value is inactive: 6.07%.

Q: Which “growth rescue (activation)” value does the source give for `Cc1ccccc1-c1cccc([C@@H]2C[C@H]3[C@H](CON3C)CN2C(=O)C(C)(C)C)c1` here?
A: Its value is inactive: -7.77%.

Q: Which Potency does the source give for `CC(C)C1C(=O)N(Cc2cn(CCC3OCCO3)nn2)CCS(=O)(=O)N1Cc1ccc(-c2ccc(F)cc2Cl)cc1` (centres undefined) here?
A: The Potency was inconclusive [activator, single point].

Q: For `Cc1onc(-c2ccccc2)c1C(=O)N/N=C/C(Br)=C/c1ccccc1`, which Potency is on record?
A: Its Potency is inconclusive [activator, single point].

Q: With `COC(=O)c1[nH]c2cccc(OC)c2c1NC(=O)C(C)N1CCC(C)CC1` (centres undefined) as the compound, how does the “growth rescue (activation)” value read?
A: The value was inactive: -4.07%.

Q: With `CCN(CC)S(=O)(=O)c1ccc2c(c1)nc(CCC(=O)O)n2C` as the compound, how does the Potency read?
A: The Potency was inconclusive [activator, single point].

Q: With `CCOc1ncccc1C(=O)OCCN1C(=O)c2ccccc2C1=O` as the compound, how does the Potency read?
A: Its Potency is inconclusive [activator, single point].

Q: For `CCN(Cc1nc2ccccc2c(=O)[nH]1)C(=O)C1CC(=O)N(c2cccc3ccccc23)C1` (centres undefined), which Potency is on record?
A: Its Potency is inconclusive [activator, single point].

Q: Which Potency does the source give for `CCCCC(=O)NNC(=S)NC(=O)c1cccc([N+](=O)[O-])c1` here?
A: Its Potency is inconclusive [activator, single point].

Q: Which Potency does the source give for `CCOC(=O)CC1C(=O)NCCN1C(=O)c1cc2c(=O)n3cccc(C)c3nc2s1` (centres undefined) here?
A: The Potency was inconclusive [activator, single point].

Q: Which Potency does the source give for `CC(C)/C=C(/C(=O)c1ccc(Cl)cc1Cl)n1cncn1` here?
A: Its Potency is inconclusive [activator, single point].

Q: For `CC1(C(=O)Nc2cccc3c2CCCC3)CCN1C(=O)CCc1ccc(Cl)cc1Cl` (centres undefined), which Potency is on record?
A: Its Potency is inconclusive [activator, single point].

Q: For `CCn1cc(C(=O)NCc2ccccc2)c(=O)c2cc(F)c(N3CCN(C(=O)c4ccco4)CC3)cc21`, which Potency is on record?
A: Its Potency is inconclusive [activator, single point].

Q: With `COC(=O)C1CCN(C(=O)c2cc(-c3ccc(Cl)s3)nc3ccccc23)CC1` as the compound, how does the Potency read?
A: The Potency was inconclusive [activator, single point].

Q: With `O=C1C(CSCc2ccccc2)NC(=S)N1c1ccccc1` (centres undefined) as the compound, how does the “growth rescue (activation)” value read?
A: Its value is inactive: -4.47%.

Q: Which “growth rescue (activation)” value does the source give for `O=C1COc2ccccc2N1Cc1ccc(Cl)cc1` here?
A: The value was inactive: 26.4%.

Q: For `COc1ccc(C2CC(c3cccs3)=Nc3ccccc3S2)cc1` (centres undefined), which Potency is on record?
A: The Potency was inconclusive [activator, single point].

Q: For `CCOc1ccc(C(=O)NC(=S)Nc2cccnc2)cc1[N+](=O)[O-]`, which Potency is on record?
A: Its Potency is inconclusive [activator, single point].

Q: Which Potency does the source give for `Cn1c(CCN2CCCC2)nc2cc(NC(=O)COc3ccc(Cl)cc3)ccc21` here?
A: Its Potency is inconclusive [activator, partial curve, poor fit].

Q: Which Potency does the source give for `Cn1nc(C(F)(F)F)c(C(=O)Nc2cccc(Cl)c2)c1Cl` here?
A: The Potency was inconclusive [activator, single point].

Q: For `CN1CCN(S(=O)(=O)c2ccc([N+](=O)[O-])cc2)CC1`, which “growth rescue (activation)” value is on record?
A: Its value is inactive: -2.4%.

Q: With `COc1ccc(OC)c(NC(=O)N2CCN(S(=O)(=O)c3ccc4c(ccn4C)c3)CC2)c1` as the compound, how does the Potency read?
A: The Potency was inconclusive [activator, single point].

Q: For `COc1cccc(CCNC(=O)c2cc(COc3cccc(OC)c3)on2)c1`, which Potency is on record?
A: The Potency was inconclusive [activator, single point].

Q: With `Cc1ccc(NS(=O)(=O)c2ccc(C)c(NC(=O)COc3ccc4ccccc4c3)c2)c(C)c1` as the compound, how does the Potency read?
A: Its Potency is inconclusive [activator, single point].

Q: With `CC(C)(C)N(Cc1ccccc1)C(=O)COC(=O)CCc1c[nH]c2ccccc12` as the compound, how does the Potency read?
A: Its Potency is inconclusive [activator, single point].

Q: For `COc1cccc(/C=C/C(=O)Nc2cccc(C(C)=O)c2)c1OC`, which “growth rescue (activation)” value is on record?
A: Its value is inactive: 1.18%.

Q: For `Cc1ccc(C(=O)CCc2ccc(N)cc2)cc1`, which Potency is on record?
A: The Potency was inconclusive [activator, partial curve].

Q: Which Potency does the source give for `C=CCNC(=O)c1cn(CC)c2cc(N3CCN(C(=O)c4ccco4)CC3)c(F)cc2c1=O` here?
A: The Potency was inconclusive [activator, single point].

Q: For `COc1ccc(-c2cc(C(=O)N3CCN(c4ncccn4)CC3)c3ccccc3n2)c(OC)c1`, which Potency is on record?
A: The Potency was inconclusive [activator, single point].

Q: For `O=C(Nc1nnc(-c2cccs2)o1)c1cccc(Oc2ccccc2)c1`, which Potency is on record?
A: The Potency was inconclusive [activator, full curve, poor fit].

Q: Which Potency does the source give for `O=C(COc1ccccc1)N=C1SC2CS(=O)(=O)CC2N1Cc1ccccc1` (centres undefined) here?
A: The Potency was inconclusive [activator, single point].

Q: With `CCOc1cc(C(=O)OCC(=O)c2c[nH]c3ccccc23)ccc1OCC(=O)N1CCOCC1` as the compound, how does the Potency read?
A: The Potency was inconclusive [activator, single point].

Q: With `COc1ccc(CSc2ccc(S(=O)(=O)N3CCCC3)cn2)cc1F` as the compound, how does the Potency read?
A: Its Potency is inconclusive [activator, single point].

Q: With `Cc1ccc(-c2cn(S(=O)(=O)c3cccc4nsnc34)nc2N)cc1` as the compound, how does the Potency read?
A: Its Potency is inconclusive [activator, single point].

Q: With `OC1Cc2ccccc2C1Nc1cccc(C(F)(F)F)c1` (centres undefined) as the compound, how does the Potency read?
A: The Potency was inconclusive [activator, partial curve].

Q: With `N#Cc1cn(CCOc2ccccc2F)c2ccccc12` as the compound, how does the Potency read?
A: The Potency was inconclusive [activator, partial curve].

Q: Which Potency does the source give for `CC1=C(C(=O)Nc2ccc(CC(=O)NCc3ccc(OC(C)C)cc3)cc2)SCCO1` here?
A: Its Potency is inconclusive [activator, single point].

Q: With `CCCCn1c(/C=N/Nc2nc3ccccc3[nH]2)nc2ccccc21` as the compound, how does the Potency read?
A: The Potency was inconclusive [activator, single point].

Q: With `CC(C)c1ccc(/C=N/n2c(COc3ccccc3)n[nH]c2=S)cc1` as the compound, how does the Potency read?
A: The Potency was inconclusive [activator, single point].

Q: For `O=C(Nc1nc(-c2ccccn2)cs1)Nc1ccc(F)cc1F`, which Potency is on record?
A: Its Potency is inconclusive [activator, partial curve].

Q: For `CC(C)(C)c1ccc(CSc2ccc(S(=O)(=O)N3CCOCC3)cn2)cc1`, which Potency is on record?
A: Its Potency is inconclusive [activator, single point].

Q: Which “growth rescue (activation)” value does the source give for `Cc1ccc(SCC(=O)c2cc(C)c(O)c(C)c2)cc1` here?
A: The value was inactive: -1.26%.

Q: With `NC(=O)c1cnn(C2CCS(=O)(=O)C2)c1` (centres undefined) as the compound, how does the Potency read?
A: The Potency was inconclusive [activator, single point].

Q: With `OC(c1ccc(F)c(F)c1)c1nc(-c2cccc(F)c2)cs1` (centres undefined) as the compound, how does the “growth rescue (activation)” value read?
A: The value was inactive: 19.6%.

Q: For `CCOc1ccc(OCCOCCNCCOC)cc1`, which Potency is on record?
A: The Potency was inconclusive [activator, single point].

Q: For `O=C(NC(=S)NNC(=O)c1ccco1)c1ccc(F)cc1`, which Potency is on record?
A: The Potency was inconclusive [activator, partial curve].

Q: With `CC1CCCC(NC(=O)c2ccc3c(c2)N(Cc2ccccc2)C(=O)CS3=O)C1C` (centres undefined) as the compound, how does the “growth rescue (activation)” value read?
A: The value was inactive: -4.88%.

Q: Which “growth rescue (activation)” value does the source give for `COc1ccccc1C(=O)NC(=O)Nc1cccc(Cl)c1` here?
A: The value was inactive: -5.42%.

Q: With `CCc1c(C)c2ccc3c(c2oc1=O)CN(Cc1ccccc1)CO3` as the compound, how does the Potency read?
A: Its Potency is active: 4.47 µM.

Q: With `Cc1cccc(NCC(=O)N/N=C\c2cccc(Oc3ccccc3)c2)c1` as the compound, how does the Potency read?
A: The Potency was inconclusive [activator, single point].

Q: For `CC(=O)N1[C@H](Cc2ccccc2)C=C[C@]1(C)C(=O)NCc1ccc(C)o1`, which Potency is on record?
A: The Potency was inconclusive [activator, single point].

Q: With `Cc1ccc(OCc2nc3ccccc3n2C(C(=O)Nc2c(C)cccc2C)C2CC2)cc1` (centres undefined) as the compound, how does the “growth rescue (activation)” value read?
A: The value was inactive: -0.787%.

Q: Which “growth rescue (activation)” value does the source give for `O=C(O)Cc1sc(=O)[nH]c1O` here?
A: The value was inactive: -9.08%.

Q: For `COc1ccccc1NC(=O)CSc1nnc(-c2ccccc2)o1`, which Potency is on record?
A: Its Potency is inconclusive [activator, single point].

Q: With `O=C(NC(=S)Nc1ccc(N2CCOCC2)cc1)c1ccc(Cl)cc1` as the compound, how does the Potency read?
A: The Potency was inconclusive [activator, partial curve, poor fit].

Q: For `CCCCOC(=O)NS(=O)(=O)c1sc(CC(C)C)cc1-c1ccc(Cn2c(CC)nc3c(C)cc(C)nc32)cc1`, which “growth rescue (activation)” value is on record?
A: Its value is inactive: -6.24%.

Q: With `Clc1ccc2c(c1)C1OCCC1C(c1ccco1)N2` (centres undefined) as the compound, how does the “growth rescue (activation)” value read?
A: The value was inactive: -1.4%.

Q: Which Potency does the source give for `Cc1cccnc1Nc1nc(-c2ccccn2)cs1` here?
A: Its Potency is inconclusive [activator, single point].

Q: Which Potency does the source give for `COc1ccc(S(=O)(=O)N2CCCCCC2)cc1NC(=O)CN1C(=O)NC(C)(c2ccccc2)C1=O` (centres undefined) here?
A: The Potency was inconclusive [activator, single point].

Q: Which “growth rescue (activation)” value does the source give for `O=[N+]([O-])c1ccc(/C=C2\C=Cc3ccccc32)cc1` here?
A: Its value is inactive: -1.81%.

Q: Which Potency does the source give for `CC(C)N(C)S(=O)(=O)c1ccc(NC(=O)C2=COCCO2)cc1` here?
A: Its Potency is inconclusive [activator, single point].

Q: With `CCOc1ccccc1NC(=O)COC(=O)C(CC(C)C)N1C(=O)C2CC=CCC2C1=O` (centres undefined) as the compound, how does the “growth rescue (activation)” value read?
A: The value was inactive: 11.3%.

Q: For `CC(C)(C)OC(=O)N1CCC(c2nnc(SCc3ccccc3Cl)o2)CC1`, which Potency is on record?
A: Its Potency is inconclusive [activator, single point].

Q: With `CC1(Br)C(Sc2ccccc2[N+](=O)[O-])=Nc2ccccc21` (centres undefined) as the compound, how does the Potency read?
A: The Potency was inconclusive [activator, single point].
